# The inconclusive results got no clear call from the source; some entries with a clear call stand among them for comparison. No potency is given beside an inconclusive call; the fits are too rough. Activity calls are given as the source filed them. Unless noted, the call rests on the fitted dose curve; in most records, active means well fitted curve in the direction sought with a large enough effect; inconclusive means small, poorly fitted or top-dose-only effect, or another doubt; inactive means no such curve, though single readings can be large; an effect the other way counts as inactive or inconclusive.
# What was measured:
# [1] = qHTS screen for small molecules that inhibit ELG1-dependent DNA repair: Hit Confirmation with 5FU Viability (AID 624250);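 further: viability measured 16 h after compound addition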
# Method in brief: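 HEK293T ELG1-luc cells seeded, dosed ~5 h later (compound; 5-FUrd 10 µM final), incubated 16 h. Read: CellTiter-Glo viability.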
# [2] = qHTS screen for small molecules that inhibit ELG1-dependent DNA repair: Hit Confirmation with MMS Viability (AID 624251); further: nearly all actives have a fitted effect of over 60% in size
# Method in brief: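 This confirmation step measures survival of ELG1-luciferase reporter HEK293T cells co-treated with test compounds and MMS at a final 10 µM, using CellTiter-Glo after a 16-hour incubation.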
# [3] = molecular target: Luciferin 4-monooxygenase (Photinus pyralis) (UniProt P08659); experiment: qHTS screen for small molecules that inhibit ELG1-dependent DNA repair: Hit Confirmation in Biochemical Luciferin Assay (AID 624253)
# Method in brief: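 Steps: (1) dispense substrate reagent; (2) pin-transfer test compounds or DMSO vehicle; (3) add luciferase; (4) image luminescence with a CCD reader.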
# [4] = qHTS Assay for Identification of Small Molecule Agonists for Hypoxia Response Element Signaling Pathway (AID 914; active means well fitted activation curve with a large enough effect in the signal ratio, with a control signal flat, not every such curve was filed as active; inconclusive means small, poorly fitted or top-dose-only effect, or effect the other way, or a change in a side signal; the % refers to the signal ratio); details: ME-180 (cervical carcinoma) HRE-bla reporter, beta-lactamase ratio, CoCl2, 17 h; activation: hits give high values
# Method in brief: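 In Opti-MEM containing 0.5% dialyzed FBS and 10 mM HEPES, ME-180 HRE-bla cells received a compound titration and EC50 CoCl2. They were incubated 17 hours, then CCF4-loaded 2.5 hours at room temperature before ratio reading.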
# Potency means the concentration at half of the fitted maximal effect; tags describe the fitted curve by direction and shape or compound fluorescence and quenching.
smiles,measurement,setting,value
O=C(Nc1cccc(/C=C/c2ccccn2)c1)c1ccc(-n2cncn2)cc1,Potency,[1],inactive
same,Potency,[2],"inconclusive [cytotoxic, partial curve, poor fit]"
Cc1cn(C2OC(COC(=O)c3ccccc3)C(OC(=O)c3ccccc3)C2OC(=O)c2ccccc2)c(=O)[nH]c1=O (stereo not given),Potency,[1],"inconclusive [rising, full curve]"
same,Potency,[2],"inconclusive [rising, partial curve, poor fit]"
COc1cc(C(=O)OC2CSCC2NC(=O)c2ccccc2)cc(OC)c1OC (stereo not given),Potency,[1],"inconclusive [rising, partial curve]"
same,Potency,[2],"inconclusive [cytotoxic, partial curve, poor fit]"
COc1ccc(/C=N/n2c(N)c(S(=O)(=O)c3cccs3)c3nc4ccccc4nc32)cc1OC,Potency,[1],"inconclusive [rising, full curve]"
same,Potency,[2],inactive
COc1ccc(/C=N/NC(=O)Nc2cccc3nsnc23)cc1OC,Potency,[1],"inconclusive [rising, full curve, poor fit]"
same,Potency,[2],"inconclusive [cytotoxic, single point]"
COc1ccc(N2CCN(C(=O)c3ccc4c(=O)n(CCc5ccc(OC)c(OC)c5)c(=O)[nH]c4c3)CC2)cc1,Potency,[1],inactive
same,Potency,[2],"inconclusive [cytotoxic, partial curve, poor fit]"
c1ccc(SCc2cn(C[C@H]3CC[C@@H]([C@@H]4CC[C@H](Cn5cc(CSc6ccccc6)nn5)O4)O3)nn2)cc1,Potency,[1],"inconclusive [rising, partial curve, poor fit]"
same,Potency,[2],inactive
COc1ccc(-c2cc(C(F)(F)F)n3ncc(C(=O)NCC4CCCO4)c3n2)cc1OC (stereo not given),Potency,[1],"inconclusive [rising, full curve]"
same,Potency,[2],inactive
COc1ccc(-c2cc(C(=O)N(C)Cc3nc4ccccc4c(=O)[nH]3)c3ccccc3n2)cc1OC,Potency,[1],"inconclusive [rising, full curve, poor fit]"
COc1cc2cc(CN(Cc3cccnc3)C(=O)Nc3ccccc3F)c(=O)[nH]c2cc1OC,Potency,[1],"inconclusive [rising, full curve, poor fit]"
same,Potency,[2],inactive
Cc1ccc(/C=C/C(=O)Nc2ccc([N+](=O)[O-])cc2)o1,Potency,[1],"inconclusive [rising, partial curve, poor fit]"
O=C(Nc1ccc(N2CCN(C(=O)c3ccco3)CC2)cc1)c1ccc([N+](=O)[O-])cc1Cl,Potency,[1],"inconclusive [rising, full curve]"
same,Potency,[2],"inconclusive [cytotoxic, single point]"
O=C(C1CCCN(c2ncnc3c2nc2n3CCCCC2)C1)N1CCN(c2ccccc2F)CC1 (stereo not given),Potency,[1],inactive
CCOC(=O)c1sc(N(Cc2ccccc2)C(=O)COC(=O)c2ccc(O)cc2)nc1C,Potency,[1],inactive
same,Potency,[2],active: 0.791 µM
O=C1NC[C@H](c2ccccc2)OC(=O)[C@H](Cc2ccc(F)cc2)CC/C=C/C[C@H]1CC(=O)N(CCO)Cc1ccccc1,Potency,[1],"inconclusive [rising, partial curve, poor fit]"
same,Potency,[2],"inconclusive [rising, full curve, poor fit]"
Cc1ccc(NC(=O)C2CCN(c3ncnc4c3nc3n4CCCCC3)CC2)cc1Cl,Potency,[1],"inconclusive [rising, full curve, poor fit]"
same,Potency,[2],inactive
CC(NC(=O)c1ccccc1NC(=O)CN1CCN(c2ccccc2O)CC1)c1ccccc1 (stereo not given),Potency,[1],"inconclusive [rising, full curve]"
same,Potency,[2],"inconclusive [rising, partial curve, poor fit]"
CC(C)n1cnc2c(NCc3ccccc3)cc(N[C@H](C)CO)cc21,Potency,[1],active: 15.8 µM
same,Potency,[2],active: 0.705 µM
COc1cc2c(cc1OC)C(COc1ccc3c(C)cc(=O)oc3c1)N(C(=O)c1ccco1)CC2 (stereo not given),Potency,[1],inactive
same,Potency,[2],"inconclusive [cytotoxic, partial curve, poor fit]"
O=C(Nc1ccc(Cl)cc1)c1nc[nH]c1C(=O)NCCCCNC(=O)c1[nH]cnc1C(=O)Nc1ccc(Cl)cc1,Potency,[1],inactive
same,Potency,[2],active: 25 µM
NC(=O)c1ccc(N2CCN(c3ccc(O)cc3)CC2)c([N+](=O)[O-])c1,Potency,[1],"inconclusive [rising, full curve]"
same,Potency,[2],"inconclusive [rising, full curve, poor fit]"
O=S1(=O)[C@H]2C[C@H](CO)O[C@@]2(CO)CN1Cc1ccc(-c2cccc(Cl)c2)cc1,Potency,[1],"inconclusive [rising, full curve, poor fit]"
same,Potency,[2],"inconclusive [cytotoxic, partial curve, poor fit]"
COc1ccc2c(c1)c(CC(=O)Nc1cccc(S(N)(=O)=O)c1)c(C)n2C(=O)c1ccc(Cl)cc1,Potency,[1],"inconclusive [rising, full curve]"
same,Potency,[2],"inconclusive [cytotoxic, single point]"
COc1ccc(-c2nnc3ccc(SCC(=O)Nc4nc5ccccc5s4)nn23)cc1OC,Potency,[1],"inconclusive [rising, full curve]"
same,Potency,[3],"inconclusive [inhibitor, partial curve]"
COC(=O)c1ccc(OCC2c3cc(OC)c(OC)cc3CCN2C(C)=O)cc1 (stereo not given),Potency,[1],"inconclusive [rising, full curve, poor fit]"
same,Potency,[2],"inconclusive [cytotoxic, partial curve]"
CCOC(=O)c1nc(Nc2ccc(C(C)=O)cc2)c2ccccc2n1,Potency,[1],"inconclusive [rising, full curve]"
same,Potency,[2],inactive
COc1ccc2cc3c(N)nn(C(=O)c4ccccc4[N+](=O)[O-])c3nc2c1,Potency,[1],inactive
same,Potency,[2],"inconclusive [cytotoxic, single point]"
C[C@H]1CN([C@@H](C)CO)C(=O)c2cccc(NC(=O)Nc3ccc(C(F)(F)F)cc3)c2O[C@@H]1CN(C)Cc1ccc(Cl)c(Cl)c1,Potency,[1],"inconclusive [cytotoxic, single point]"
same,Potency,[2],active: 25 µM
Cn1c(=O)c2c(nc(Oc3ccc4ccccc4c3)n2C)n(C)c1=O,Potency,[1],"inconclusive [rising, partial curve]"
same,Potency,[2],"inconclusive [rising, partial curve, poor fit]"
O=C(c1ccc(-c2cc3ccccc3oc2=O)cc1)N1CCN(c2ccc(Cl)cc2[N+](=O)[O-])CC1,Potency,[1],"inconclusive [rising, full curve, poor fit]"
same,Potency,[2],"inconclusive [cytotoxic, partial curve, poor fit]"
C/C(Cl)=C\Cn1c(NCCc2ccccc2)nc2c1c(=O)n(C)c(=O)n2C,Potency,[1],inactive
same,Potency,[2],"inconclusive [cytotoxic, full curve]"
CC1(C)Cc2c(c(N3CCOCC3)nc3sc4c(=O)[nH]cnc4c23)CS1,Potency,[4],"inconclusive [inhibitor, partial curve, poor fit]"
same,Potency,[1],"inconclusive [rising, full curve, poor fit]"
CCC(C)(C)C1CCc2nc3ccccc3c(C(=O)OC(C)C(=O)Nc3c(C)n(C)n(-c4ccccc4)c3=O)c2C1 (stereo not given),Potency,[1],"inconclusive [rising, full curve]"
same,Potency,[2],inactive
Cc1ccc(-c2nnc(NCc3nc4ccccc4[nH]3)c3ccccc23)cc1S(=O)(=O)N1CCOCC1,Potency,[1],inactive
same,Potency,[2],"inconclusive [cytotoxic, single point]"
CCc1ccccc1OCC(=O)Nc1cc(S(=O)(=O)N(CC)CC)ccc1N1CCOCC1,Potency,[1],"inconclusive [rising, partial curve]"
same,Potency,[2],inactive
COc1ccc(NC(=O)CN2CCN(C3c4ccccc4-c4ccccc43)CC2)c(OC)c1,Potency,[1],"inconclusive [rising, full curve]"
same,Potency,[2],"inconclusive [cytotoxic, full curve]"
CC(C)(C)OC(=O)NCCCCCNC(=O)c1nc[nH]c1C(=O)NCCCCCNC(=O)OC(C)(C)C,Potency,[1],"inconclusive [cytotoxic, single point]"
same,Potency,[2],active: 28.1 µM
O=C1NC[C@H](c2ccccc2)OC(=O)[C@H](Cc2ccc(F)cc2)C/C=C\C[C@H]1CC(=O)N(CCO)Cc1ccccc1,Potency,[1],"inconclusive [rising, partial curve, poor fit]"
same,Potency,[2],"inconclusive [cytotoxic, partial curve, poor fit]"
Cc1ccc(NC(=O)c2nc[nH]c2C(=O)NCCCCNC(=O)c2[nH]cnc2C(=O)Nc2ccc(C)cc2)cc1,Potency,[2],"inconclusive [cytotoxic, partial curve, poor fit]"
Cc1cccc(/C=C/c2onc(C)c2S(=O)(=O)N2CCC(C(=O)N3CCC(C)CC3)CC2)c1,Potency,[1],"inconclusive [rising, full curve]"
same,Potency,[2],inactive
CC(C)(C)OC(=O)NCc1ccc(NC(=O)c2nc[nH]c2C(=O)NCCCNC(=O)c2[nH]cnc2C(=O)Nc2ccc(CNC(=O)OC(C)(C)C)cc2)cc1,Potency,[1],"inconclusive [rising, full curve, poor fit]"
same,Potency,[2],active: 25 µM
O=C(CCc1nnc2n(Cc3ccc(Cl)cc3)c(=O)c3ccccc3n12)N1CCN(c2ccccn2)CC1,Potency,[1],"inconclusive [rising, partial curve]"
same,Potency,[2],"inconclusive [rising, full curve]"
